Assay results taken from the supplement of paper PMC7826260.
The other results are listed elsewhere or left out. The data describe in vitro nicking of single-stranded DNA by Rep domains for 1 h at 37 °C with 3 µM enzyme; only the middle of the 90-letter strands is printed. Uncut reads are compared with the no-enzyme pool on a log2 scale; more negative means more cut, near 0 not cut, and no call is made. Counts are relative to all reads, so uncut sequences can rise above 0 when many others are cut.

How the values were obtained:
Test in all cases: uncleaved DNA left, log2 of reads against the no-enzyme library (log2 ratio); higher = less cleavage (more negative = more Rep cleavage of the k-mer); sequences stand for … in CTCGTCCG…ACCGGAGA
[1] = tested on: T1, Rep nickase domain of Muscovy duck circovirus
T1 sequence (residues 1-111 of Rep, tag left off): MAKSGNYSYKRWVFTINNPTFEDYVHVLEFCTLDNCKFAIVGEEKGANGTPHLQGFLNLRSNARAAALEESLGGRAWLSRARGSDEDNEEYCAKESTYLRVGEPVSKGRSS
Experimental: (§1)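 A pool of 90-nt single-stranded DNAs with seven random bases just before the constant AC of the nick site (name = the seven bases) was cut by 3 µM recombinant His6-SUMO-tagged Rep nickase domain (300 nM DNA, 50 mM HEPES pH 8.0, 50 mM NaCl, 1 mM MnCl2, 1 h, 37 °C, three replicates). Uncut DNA was amplified and sequenced.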

[2] = tested on: T2, Rep nickase domain of banana bunchy top virus
T2 sequence (residues 1-94 of Rep, tag left off): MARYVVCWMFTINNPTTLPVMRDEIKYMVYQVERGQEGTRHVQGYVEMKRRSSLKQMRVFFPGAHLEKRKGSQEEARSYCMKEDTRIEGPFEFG
Experimental: as §1

[3] = tested on: T3, Rep nickase domain of cabbage leaf curl virus
T3 sequence (residues 1-116 of Rep, tag left off): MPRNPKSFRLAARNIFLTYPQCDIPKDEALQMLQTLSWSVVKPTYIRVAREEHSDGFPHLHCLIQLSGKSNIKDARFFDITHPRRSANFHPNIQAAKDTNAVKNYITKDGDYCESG
Experimental: as §1

[4] = tested on: T4, Rep nickase domain of chickpea chlorotic dwarf virus
T4 sequence (residues 1-124 of Rep, tag left off): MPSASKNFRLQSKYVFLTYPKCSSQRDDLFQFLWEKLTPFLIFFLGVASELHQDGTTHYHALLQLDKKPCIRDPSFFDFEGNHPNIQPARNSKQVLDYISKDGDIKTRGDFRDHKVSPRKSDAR
Experimental: as §1

[5] = tested on: T5, Rep nickase domain of faba bean necrotic yellows virus
T5 sequence (residues 1-98 of Rep, tag left off): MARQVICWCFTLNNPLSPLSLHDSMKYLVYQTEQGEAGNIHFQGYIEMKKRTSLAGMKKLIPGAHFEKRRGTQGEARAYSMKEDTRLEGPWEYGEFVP
Experimental: as §1

[6] = tested on: T6, Rep nickase domain of maize striate mosaic virus
T6 sequence (residues 1-117 of Rep, tag left off): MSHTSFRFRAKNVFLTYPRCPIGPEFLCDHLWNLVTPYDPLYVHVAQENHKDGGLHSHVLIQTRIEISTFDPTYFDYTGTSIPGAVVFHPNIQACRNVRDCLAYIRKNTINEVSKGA
Experimental: as §1

[7] = tested on: T7, Rep nickase domain of porcine circovirus 2
T7 sequence (residues 2-116 of Rep, tag left off): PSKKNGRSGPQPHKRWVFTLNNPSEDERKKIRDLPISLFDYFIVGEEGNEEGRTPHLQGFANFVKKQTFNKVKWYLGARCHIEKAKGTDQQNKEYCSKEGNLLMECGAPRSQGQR
Experimental: as §1

[8] = tested on: T8, Rep nickase domain of tomato golden mosaic virus
T8 sequence (residues 1-124 of Rep, tag left off): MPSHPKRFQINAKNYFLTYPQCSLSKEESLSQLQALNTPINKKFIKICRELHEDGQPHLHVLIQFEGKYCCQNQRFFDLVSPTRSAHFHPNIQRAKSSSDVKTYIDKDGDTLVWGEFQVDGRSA
Experimental: as §1

[9] = tested on: T9, Rep nickase domain of tomato yellow leaf curl virus
T9 sequence (residues 1-136 of Rep, tag left off): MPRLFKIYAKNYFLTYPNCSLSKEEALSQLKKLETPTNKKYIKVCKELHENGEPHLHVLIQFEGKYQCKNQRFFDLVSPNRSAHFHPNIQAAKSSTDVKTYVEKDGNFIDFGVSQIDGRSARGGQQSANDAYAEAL
Experimental: as §1

[10] = tested on: T10, Rep nickase domain of wheat dwarf virus
T10 sequence (residues 1-137 of Rep, tag left off): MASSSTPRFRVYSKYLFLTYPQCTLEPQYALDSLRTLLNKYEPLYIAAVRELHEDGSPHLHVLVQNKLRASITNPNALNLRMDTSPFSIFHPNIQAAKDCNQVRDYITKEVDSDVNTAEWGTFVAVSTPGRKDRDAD
Experimental: as §1

Sequence | uncleaved DNA left (log2) [1] | uncleaved DNA left (log2) [2] | uncleaved DNA left (log2) [3] | uncleaved DNA left (log2) [4] | uncleaved DNA left (log2) [5] | uncleaved DNA left (log2) [6] | uncleaved DNA left (log2) [7] | uncleaved DNA left (log2) [8] | uncleaved DNA left (log2) [9] | uncleaved DNA left (log2) [10]
CCGAATA | 0.103 | -0.0212 | 0.128 | -0.854 | 0.163 | -0.0738 | 0.0375 | 0.0911 | 0.0877 | 0.0834
GTCACCG | 0.0657 | 0.125 | 0.194 | 0.428 | -0.0561 | 0.673 | 0.128 | 0.188 | 0.0448 | 0.138
GAGTTAC | -0.0213 | -0.0987 | 0.172 | -0.0839 | -0.133 | 1.08 | -0.836 | -0.0373 | -0.0173 | -0.0951
TTAGAGA | 0.0614 | 0.0346 | 0.344 | 0.343 | -0.0324 | -0.366 | 0.0362 | -0.00935 | 0.0644 | 0.118
ACGGTCG | 0.0387 | 0.0566 | -0.628 | 0.186 | 0.129 | -0.475 | 0.101 | -0.0832 | 0.141 | -0.118
ACCTCTA | -0.0234 | -0.0869 | -0.312 | -1.27 | -0.000201 | -0.607 | -0.0363 | 0.0824 | -0.144 | 0.00933
TCAGCGC | -0.027 | -0.102 | -0.828 | -0.427 | -0.00258 | -0.961 | 0.194 | -0.109 | 0.0421 | -0.16
TCGGGGA | 0.0619 | -0.072 | 0.625 | 0.956 | -0.0342 | 1.93 | -0.0054 | -0.135 | -0.107 | -0.00898
ATTAACT | -0.838 | -0.365 | -0.583 | -3.22 | 0.0811 | -0.922 | -3.25 | 0.0515 | -0.0639 | -0.0683
CTGCTCC | -0.0931 | 0.0185 | -0.000325 | 0.203 | 0.0859 | 0.156 | 0.0884 | -0.0487 | -0.0326 | -0.00331
CTCCAGG | -0.113 | -0.16 | 0.176 | 0.843 | 0.0619 | 0.568 | -0.175 | -0.0781 | -0.0845 | -0.0455
GTTATTT | 0.02 | 0.113 | 0.297 | 0.724 | -0.0301 | 1.73 | 0.0202 | 0.0857 | -0.00735 | 0.116
TTTCTGC | -0.0695 | -0.0915 | -0.527 | -0.788 | -0.0559 | -1.2 | -0.0218 | -0.232 | 0.00895 | -0.118
CGTTTTT | -2.56 | -0.306 | 0.0628 | -1.26 | -0.00234 | -0.0906 | -2.79 | 0.0575 | -0.075 | -0.112
GGATTAC | -0.0282 | 0.0659 | 0.488 | 0.887 | -0.064 | 1.78 | 0.0703 | -0.00188 | 0.0724 | 0.0845
ACCGAGC | 0.0873 | -0.0317 | -0.366 | -0.0132 | -0.00908 | -0.613 | 0.0554 | 0.0459 | -0.0406 | 0.0215
ACCATGA | 0.02 | 0.0867 | -0.447 | -0.261 | 0.137 | -0.994 | 0.26 | 0.203 | 0.147 | -0.0319
TCGGCTT | 0.213 | 0.0171 | 0.0888 | -0.213 | -0.0177 | 0.942 | -0.0292 | 0.0702 | -0.134 | -0.0373
CACGAGA | -0.0422 | -0.0606 | 0.676 | 1.43 | 0.0227 | 0.944 | 0.0269 | -0.0152 | -0.147 | -0.0218
ACAGTGC | -0.0461 | -0.0485 | -0.693 | -0.264 | 0.0889 | -0.933 | 0.194 | -0.0397 | 0.0886 | -0.139
TGCTATT | -3.22 | -1.63 | -1.1 | -2.5 | -0.243 | -0.579 | -3.32 | -0.307 | 0.144 | -1.08
GGGAGTA | -0.0983 | -0.0376 | 0.765 | 1.84 | -0.112 | 2.07 | 0.168 | -0.00498 | -0.0647 | 0.0114
TTATCCT | -2.51 | 0.0219 | -1.44 | -2.31 | -0.0931 | -0.496 | -1.65 | -0.391 | -0.0348 | -0.33
GACCACT | -0.0133 | -0.0378 | 0.0576 | -2.17 | -0.0544 | 0.178 | -0.554 | -0.0522 | 0.0364 | 0.0326
TGAAAGT | 0.0808 | 0.0193 | 0.0493 | -0.259 | -0.0157 | -0.665 | -0.0501 | -0.0206 | 0.0482 | -0.0152
CGTCCGG | 0.0687 | 0.0513 | 0.371 | 1.06 | -0.0379 | 1.21 | 0.0417 | 0.0852 | -0.0553 | 0.00275
CAGACCT | -0.0777 | -0.205 | -0.0621 | -0.8 | -0.324 | 0.718 | -3.12 | -0.0996 | -0.0629 | -0.104
GTTAATT | 0.0598 | 0.131 | 0.483 | 0.696 | 0.0806 | 1.74 | 0.000486 | 0.0835 | 0.175 | 0.211
GCCAGTT | -0.063 | 0.0122 | 0.0764 | -0.463 | -0.00144 | 0.184 | -0.148 | -0.014 | -0.0663 | -0.11
